For one molecule, binding results are on record in article PMC9637814.

Chains of the proteins cited; added tags and fusions are not shown.
UniProt P14618: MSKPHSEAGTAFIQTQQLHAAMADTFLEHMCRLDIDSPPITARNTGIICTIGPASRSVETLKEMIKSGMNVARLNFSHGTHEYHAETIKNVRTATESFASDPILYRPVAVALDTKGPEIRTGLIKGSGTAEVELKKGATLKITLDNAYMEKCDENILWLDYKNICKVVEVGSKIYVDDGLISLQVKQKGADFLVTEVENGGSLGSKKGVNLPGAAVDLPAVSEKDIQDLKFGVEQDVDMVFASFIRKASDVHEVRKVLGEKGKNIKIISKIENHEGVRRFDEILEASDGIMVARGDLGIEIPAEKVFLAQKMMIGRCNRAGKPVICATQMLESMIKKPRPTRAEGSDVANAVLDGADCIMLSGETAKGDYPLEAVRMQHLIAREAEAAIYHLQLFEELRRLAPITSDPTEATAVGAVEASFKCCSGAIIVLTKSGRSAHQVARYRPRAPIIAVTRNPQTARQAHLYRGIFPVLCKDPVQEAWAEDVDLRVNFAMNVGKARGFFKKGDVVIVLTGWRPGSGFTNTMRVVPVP

These are yes or no findings as the source states them, for the method shown. In cells and extracts the contact can be indirect. Some results given as binding are weak or reduced against the parent protein; the word gives no strength.

The assay has as its target pyruvate kinase M2 (PKM2) (human (endogenous in H1299)) (UniProt P14618). Nature of the assay: co-IP; endogenous proteins in H1299 cell extracts, precipitated with Aurora A or PKM2 antibody, immunoblot.

B1: Aurora A (protein, UniProt O14965 1-403)
chain: MDRSKENCISGPVKATAPVGGPKRVLVTQQFPCQNPLPVNSGQAQRVLCPSNSSQRIPLQAQKLVSSHKPVQNQKQKQLQATSVPHPVSRPLNNTQKSKQPLPSAPENNPEEELASKQKNEESKKRQWALEDFEIGRPLGKGKFGNVYLAREKQSKFILALKVLFKAQLEKAGVEHQLRREVEIQSHLRHPNILRLYGYFHDATRVYLILEYAPLGTVYRELQKLSKFDEQRTATYITELANALSYCHSKRVIHRDIKPENLLLGSAGELKIADFGWSVHAPSSRRTTLCGTLDYLPPEMIEGRMHDEKVDLWSLGVLCYEFLVGKPPFEANTYQETYKRISRVEFTFPDFVTEGARDLISRLLKHNPSQRPMLREVLEHPWITANSSKPSNCQNKESASKQS
As to B1, the binding result is recorded as “binds”.
